{
  "source": "PubChem BioAssay AID588342",
  "about": "(National Center for Advancing Translational Sciences (NCATS), 2011)",
  "note": "Among all 360,000 compounds or so, about 25,000 (6.9%) were called active. Inconclusive means that the source gave no clear call. Such entries were picked first, then a sample of the others. Calls come from the whole dose curve; as a rule, active = well fitted inhibition curve with a large enough effect; inconclusive = small, poorly fitted or top-dose-only effect; inactive = flat fitted curve, though single readings scatter. Potencies of inconclusive entries are doubtful fits and often do not repeat. Potency is the fitted concentration of half-maximal effect; tags give direction and shape of the fitted curve.",
  "data": [
    {"molecular_target": "Luciferin 4-monooxygenase (Photinus pyralis) (UniProt P08659)", "sequence (P08659 whole entry, looked up)": "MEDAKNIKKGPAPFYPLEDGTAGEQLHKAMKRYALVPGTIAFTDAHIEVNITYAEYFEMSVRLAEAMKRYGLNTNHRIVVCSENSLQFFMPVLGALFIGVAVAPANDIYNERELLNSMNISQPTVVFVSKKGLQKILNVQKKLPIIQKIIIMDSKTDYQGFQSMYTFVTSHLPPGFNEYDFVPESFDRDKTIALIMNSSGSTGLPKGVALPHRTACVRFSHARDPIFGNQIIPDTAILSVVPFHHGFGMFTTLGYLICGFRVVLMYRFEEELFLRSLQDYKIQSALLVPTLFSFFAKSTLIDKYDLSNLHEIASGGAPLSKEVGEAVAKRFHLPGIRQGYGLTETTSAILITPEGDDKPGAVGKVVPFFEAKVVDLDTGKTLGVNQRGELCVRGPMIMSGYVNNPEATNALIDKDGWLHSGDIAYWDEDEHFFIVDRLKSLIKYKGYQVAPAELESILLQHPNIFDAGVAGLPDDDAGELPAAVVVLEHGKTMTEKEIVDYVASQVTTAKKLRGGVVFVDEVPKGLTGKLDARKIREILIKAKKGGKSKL", "assay": "qHTS profiling assay for firefly luciferase inhibitor/activator using purifed enzyme and Km concentrations of substrates (counterscreen for miR-21 project); note: nearly all actives have a fitted effect of over 55% in size;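 for activity change, negative = inhibition: plate controls were vehicle for no effect and reference inhibitor for full effect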", "conditions": "purified FLuc, luminescence inhibition; series mostly up to 57.5 µM; activity change, negative = inhibition: at the top concentration", "outline": "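Biochemical qHTS of compounds, final roughly 60 µM downward over six points, against 10 nM purified firefly luciferase using Km concentrations of substrates (10 uM D-luciferin, 10 uM ATP) in Tris acetate pH 7.5 buffer; luminescence output.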", "values": [
      {"smiles": "CN(C)c1ccc(C(=O)OCC(=O)N2CCCCCC2)cc1", "Potency": "inconclusive: 37.9 µM [inhibitor, partial curve, poor fit]"},
      {"smiles": "COc1ccc(N/C(C)=C/C(=O)c2ccccc2)cc1", "Potency": "active: 3.01 µM"},
      {"smiles": "COc1cccc(NC(=O)Cn2c(=O)n(CC(=O)NCc3ccc(C)cc3)c(=O)c3sccc32)c1", "activity change, negative = inhibition": "inactive: -5.19%"},
      {"smiles": "COC(=O)Cn1cc(C(=O)c2ccco2)c2ccccc21", "Potency": "inconclusive: 19 µM [inhibitor, single point]"},
      {"smiles": "Cc1cc(-c2nnc(-c3cccc(Cl)c3)o2)no1", "Potency": "active: 5.36 µM"},
      {"smiles": "COc1cc(/C=N/NC(=O)c2ccc(NS(=O)(=O)c3cccs3)cc2)cc(OC)c1O", "Potency": "inconclusive: 21.3 µM [inhibitor, partial curve]"},
      {"smiles": "CCc1nnc(NC(=O)CSc2nnnn2C)s1", "activity change, negative = inhibition": "inactive: 0.457%"},
      {"smiles": "c1csc(Cn2c(-c3cccs3)nc3ccccc32)c1", "Potency": "inconclusive: 23.9 µM [inhibitor, partial curve, poor fit]"},
      {"smiles": "Cn1c[n+](C)cc1-c1ccc(/C(N)=N/O)cc1", "activity change, negative = inhibition": "inactive: -1.62%"},
      {"smiles": "Cc1ccc(/C=C/C(=O)Nc2ccc(S(N)(=O)=O)cc2)o1", "Potency": "inconclusive: 26.9 µM [inhibitor, partial curve, poor fit]"},
      {"smiles": "O=C(COC(=O)CNC(=O)c1ccccc1F)Nc1cccc(S(=O)(=O)N2CCCCCC2)c1", "Potency": "inconclusive: 33.8 µM [inhibitor, partial curve, poor fit]"},
      {"smiles": "COC(=O)Cn1c(=NC(=O)c2ccc([N+](=O)[O-])s2)sc2cc(Br)ccc21", "activity change, negative = inhibition": "inactive: -18.4%"},
      {"smiles": "N#Cc1cc(-c2ccc(Cl)cc2)cnc1Sc1ccccc1", "Potency": "inconclusive: 26.9 µM [inhibitor, partial curve, poor fit]"},
      {"smiles": "O=C1Nc2ccccc2/C1=C/c1ccccc1Cl", "Potency": "inconclusive: 12 µM [inhibitor, partial curve, poor fit]"},
      {"smiles": "Cc1ccc(N2C(=O)C(CC(=O)Nc3cccc(F)c3)N(CCc3ccccc3F)C2=O)cc1", "note": "(stereo not given)", "Potency": "inconclusive: 15.1 µM [inhibitor, partial curve]"},
      {"smiles": "Cc1nn(-c2ccccc2)c(/N=C/c2ccccc2O)c1-c1ccccc1", "activity change, negative = inhibition": "inactive: -14.9%"},
      {"smiles": "O=C(Nc1ccc(F)cc1)Nc1cccnc1Cl", "Potency": "active: 16.9 µM"},
      {"smiles": "COc1ccc(-n2nc(C(=O)NCC(=O)N3CCN(c4cccc(Cl)c4)CC3)c3ccccc3c2=O)c(OC)c1", "Potency": "active: 7.57 µM"},
      {"smiles": "c1ccc(-n2cnc3cc(NCc4ccncc4)ccc32)cc1", "Potency": "active: 23.9 µM"},
      {"smiles": "COc1ccc2cc3cc(C(=O)NCCCN4CCC(C)CC4)oc3nc2c1", "Potency": "inconclusive: 26.9 µM [inhibitor, partial curve, poor fit]"},
      {"smiles": "COc1cccc(/C=C/c2nc(C#N)c(NC3CCCCC3)o2)c1", "Potency": "inconclusive: 12 µM [inhibitor, partial curve]"},
      {"smiles": "O=C(O)c1cc(C(=O)O)cc(-c2ccc(/C=c3/sc4nc5ccccc5n4c3=O)o2)c1", "Potency": "inconclusive: 7.57 µM [inhibitor, full curve]"},
      {"smiles": "CCc1cccc(NC(=O)CSc2nnc(-c3cc4occc4n3C)n2-c2ccccc2C)c1", "activity change, negative = inhibition": "inactive: -11%"},
      {"smiles": "Cc1ccc(-n2nc(CO)c(C(=O)NCCC(C)C)n2)cc1C", "Potency": "inconclusive: 13.5 µM [inhibitor, partial curve, poor fit]"},
      {"smiles": "COc1cccc2sc3ccc(C#Cc4ccc(N)cc4)cc3c(=O)c12", "Potency": "active: 4.78 µM"},
      {"smiles": "Oc1ccc(C(=S)N2CCCC2)cc1", "Potency": "inconclusive: 13.5 µM [inhibitor, partial curve, poor fit]"},
      {"smiles": "O=c1[nH]c(N/N=C\\c2ccc3c(c2)OCO3)nc2ccccc12", "Potency": "active: 3.79 µM"},
      {"smiles": "COc1ccc2c(c1)c(=O)oc1c(C)c(OCc3cc(C(=O)O)oc3C)ccc12", "Potency": "active: 10.7 µM"},
      {"smiles": "O=C(CSc1nnc2sc3ccccc3n12)NCc1ccco1", "Potency": "inconclusive: 21.3 µM [inhibitor, partial curve, poor fit]"},
      {"smiles": "CC1CCN(S(=O)(=O)c2cc(C(=O)N3CCN(c4cccc(Cl)c4)CC3)n(C)c2)CC1", "Potency": "inconclusive: 16.9 µM [inhibitor, partial curve, poor fit]"},
      {"smiles": "CS(=O)(=O)CC[C@@H](C(=O)NCCc1ccccc1)N1Cc2ccccc2C1=O", "activity change, negative = inhibition": "inactive: -0.0514%"},
      {"smiles": "Cc1cccc(/C=N/NC(=O)c2cccc(NC(=O)c3ccccc3)c2)n1", "Potency": "active: 10.7 µM"},
      {"smiles": "Cc1ccc(OC2=NS(=O)(=O)c3ccccc32)cc1", "activity change, negative = inhibition": "inactive: -1.65%"},
      {"smiles": "Cc1c(C(=O)NCC2CCCO2)sc2nc(-c3ccccc3)cn12", "note": "(stereo not given)", "Potency": "inconclusive: 23.9 µM [inhibitor, single point]"},
      {"smiles": "COc1cc(C(=O)NCCN2C(=O)S/C(=C\\c3cccs3)C2=O)cc(OC)c1OC", "Potency": "inconclusive: 21.3 µM [inhibitor, partial curve, poor fit]"},
      {"smiles": "Cc1ccc(S(=O)(=O)NC(C(=O)N2CCN(S(=O)(=O)c3cccc(F)c3)CC2)C(C)C)cc1", "note": "(stereo not given)", "activity change, negative = inhibition": "inactive: -0.668%"},
      {"smiles": "CN(C(=O)c1ccccc1C(=O)OCC(=O)c1ccccc1)c1ccccc1", "Potency": "inconclusive: 23.9 µM [inhibitor, single point]"},
      {"smiles": "Cn1cc(Br)c(C(=O)N/N=C/c2cc3ccccc3nc2Cl)n1", "Potency": "inconclusive: 4.26 µM [inhibitor, partial curve, poor fit]"},
      {"smiles": "C/C(=N\\NC(=S)NCc1ccccc1)c1cccc(Br)c1", "Potency": "inconclusive: 37.9 µM [inhibitor, partial curve, poor fit]"},
      {"smiles": "Cc1ccc2nc(NC(=O)C3CCCN(S(=O)(=O)c4cnc[nH]4)C3)sc2c1", "note": "(stereo not given)", "Potency": "active: 12 µM"},
      {"smiles": "COc1cccc(/C=C2\\C(=O)C(=O)c3ccccc32)c1", "Potency": "active: 21.3 µM"},
      {"smiles": "O=C(Nc1ccc(-c2cnco2)cc1)c1ccc(F)cc1F", "Potency": "inconclusive: 3.79 µM [inhibitor, partial curve, poor fit]"},
      {"smiles": "CCOc1ccc(-c2nnc(-c3ccccc3)o2)cc1", "Potency": "active: 1.07 µM"},
      {"smiles": "O=C(CSc1nnc(C2CC2)n1C1CC1)c1ccc(F)cc1", "Potency": "inconclusive: 12 µM [inhibitor, partial curve, poor fit]"},
      {"smiles": "COc1cccc2cc(C(=O)CS(=O)(=O)c3ccc(C)cc3)c(=O)oc12", "Potency": "inconclusive: 21.3 µM [inhibitor, partial curve, poor fit]"}
    ]}
  ]
}
